Data on 16 molecules can be found in PubChem BioAssay AID2060897 (Molecular Pharmacology Branch, DTP, NCI, 2025).

As usually defined, the IC50 is the point on the concentration scale where inhibition reaches its midpoint.

The test has as its system 966289-007-R4-J1-PDC complex spheroid viability. In words: Anticancer human tumor 966289-007-R4-J1-PDC patient-derived pancreatic adenocarcinoma cell line growth inhibition [RAS]. To be noted: for viability, T/C: stronger effect = lower value; for IC50: compound alone. The text has this: RAS pathway inhibitors in Combinations in Complex Spheroids
A high-throughput screen of multi-cell type tumor spheroids was designed to identify active combinations of RAS pathway inhibitors and targeted small molecules. Complex spheroids include a stromal component modeled by human endothelial cells (HUVEC) and fibroblasts modeled by human mesenchymal stem cells (MSCs). The concentration ranges selected for each drug and investigational agent were based upon clinically achievable concentrations if the clinical Cmax of the agent was known.
Compounds. The drugs and investigational agents: abemaciclib (NSC768073), cobimetinib (NSC768068), divarasib (GDC6063, NSC841802), docetaxel (NSC628503), GDC-1971 (RLY-1971, NSC841576), gemcitabine (NSC613327), inavolisib (NSC800729), ipatasertib (NSC767898), KB-0742 (NSC834161), MRTX-1133 (NSC836407), osimertinib (NSC779217), RMC-4630 (NSC839698), RMC-6236 (NSC851965), RMC-6291 (NSC852671), Ro-3306 (NSC812927), sapanisertib (NSC764658), SN-38 (NSC673596), staurosporine (NSC755774), SY5609 (NSC837396), and tovorafenib (DAY101, NSC766906), were obtained from the National Cancer Institute (NCI) Developmental Therapeutics Program Chemical Repository. The FDA-approved anticancer drug set is available from the NCI Developmental Therapeutics Program. […] The stock solutions were prepared in dimethyl sulfoxide (DMSO, Sigma-Aldrich, St. Louis, MO, cat. D2650) at 800-fold the tested concentration and stored at -70 degrees C prior to their use. All drugs and investigational agents were tested over a range starting from a high concentration at or near the clinical Cmax and decreasing in half-log increments. If the clinical Cmax for an agent had not been determined, the highest concentration tested was 10 microM.
Cell Culture. All cells were maintained in an incubator at 37 degrees C and 5% CO2 with 95% humidity. The PDC lines were cultured according to standard operating procedures established by the NCI PDMR. All PDCs were thawed and cultured in Matrigel-coated flasks prepared with a working solution of 1X Ham's F-12 nutrient mix, without supplementation (Invitrogen, Waltham, MA, cat. 11765054), 100 U/mL penicillin-streptomycin (Invitrogen, cat. 15140122), and 2.5% Matrigel (Corning Inc., Corning, NY, cat. 354248) for the first three passages. The 362531-283-R-J2-PDC and 782815-120-R-J1-PDC lines were cultured in 6C/Colon 1B media, which includes advanced DMEM/F-12 (Thermo Fisher Scientific, cat. 12634028), 10 mM HEPES (Thermo Fisher Scientific, cat. 15630080), 1X GlutaMAX supplement (Thermo Fisher Scientific, cat. 35050061), 0.1 mg/mL primocin (InvivoGen, San Diego, CA, cat. ant-pm-2), 10% defined fetal bovine serum, heat inactivated (HyClone Laboratories Inc., Logan, UT, cat. SH30070.03HI), 50% L-WRN conditioned media (ATCC, cat. CRL-3276), 1.25 mM N-Acetyl-L-cysteine (Sigma-Aldrich, cat. A9165), 10 mM nicotinamide (Sigma-Aldrich, cat. N0636), 1X B-27 supplement (Thermo Fisher Scientific, cat. 17504044), 1X N-2 supplement (Thermo Fisher Scientific, cat. 17502048), 50 ng/mL human EGF (Thermo Fisher Scientific, cat. PHG0311), and 10 microM Y-27632 dihydrochloride (Tocris Bioscience, cat. 1254). The K12877-001-R-J1-PDC line was cultured in 6I media, which includes all 6C/Colon 1B media plus 10 ng/mL human FGF-10 (PeproTech, cat. 100-26), 1 ng/mL human FGF-2 (PeproTech, cat. 100-18B), 1 µM prostaglandin E2 (Tocris Bioscience, cat. 2296), […] hydrocortisone (Sigma-Aldrich, cat. H4001), and […] bovine insulin (Sigma-Aldrich, cat. I6634). The K86415-001-R-J1-PDC line was cultured in 6D media, which includes all 6C/Colon 1B media components minus the L-WRN conditioned media. The 485176-168-R4-J1-PDC was cultured in PANC media, which includes all 6C/Colon 1B media plus 100 ng/mL human FGF-10 (PeproTech, cat. 100-26), 500 nM SB-431542 (Selleckchem, cat. S1067), and 10 nM gastrin (Tocris Bioscience, cat. 3006). […]

The source holds more than one record for some entries. This is not the full list of results. There may be further records. Values that stand side by side are repeats (runs, samples, wells, individuals or studies). Marks such as (2×) stand for listed records that agree. A date in brackets names the month of the test.
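Also: spheroids exposed to agents for one week before readout.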
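For viability, T/C in this document: percent viability relative to DMSO vehicle control wells as 100%.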

With `C#Cc1c(F)ccc2cc(O)cc(-c3ncc4c(N5CC6CCC(C5)N6)nc(OCC56CCCN5CC(F)C6)nc4c3F)c12` (centres undefined), the viability, T/C is 97.6, 122, 93.3, 108, 105, 104 (2×), 111% (compound alone 0.0316 µM); 93.2, 121, 113, 106, 111, 102, 101, 110% (compound alone 0.1 µM); 104 (2×), 114, 92.7, 121, 106, 105, 120% (compound alone 1 µM); 92.9, 85.9, 89.2, 106, 78.2, 87.6, 84.3, 93.7% (compound alone 10 µM).
With `CC(Nc1ccc2c(c1)OCCn1cc(N3C(=O)OCC3C(F)F)nc1-2)C(N)=O` (centres undefined), the viability, T/C is 117%, 132% [2024-05] and 96.7%, 102% [2024-06] (compound alone 0.0316 µM); 87.1%, 107% [2024-05] and 114%, 105% [2024-06] (compound alone 0.1 µM); 82.3%, 95.8% [2024-05] and 110%, 111% [2024-06] (compound alone 1 µM); 87.9%, 98.5% [2024-05] and 107%, 113% [2024-06] (compound alone 3.16 µM).
Regarding `NC1c2ccccc2OC12CCN(c1cnc3c(N4CCCc5ncccc54)n[nH]c3n1)CC2` (centres undefined), the viability, T/C reads like this: (compound alone 0.0316 µM) 86.2%, 98.1% [2024-05] and 101%, 113% [2024-06]; (compound alone 3.16 µM) 78.5%, 95.2% [2024-05] and 117%, 102% [2024-06].
With `CC1(C)CCC(Nc2ncc(C(F)(F)F)c(-c3c[nH]c4c(P(C)(C)=O)c(C#N)ccc34)n2)CN1` (centres undefined), the IC50 is 5.25 nM, 7.37 nM [2024-05] and 16.2 nM, 13 nM [2024-06]. The viability, T/C (compound alone 0.000949 µM) is 131%, 110% [2024-05] and 102%, 104% [2024-06]. Besides, the viability, T/C (compound alone 0.003 µM) was 75.8%, 105% [2024-05] and 124%, 117% [2024-06]. For the same molecule, the viability, T/C (compound alone 0.00949 µM) was 22.7%, 34.4% [2024-05] and 80.6%, 64.4% [2024-06].
For `CCC(CC)c1cc(NC2CCC(N)C2)n2nccc2n1` (centres undefined), the viability, T/C by setting is: (compound alone 0.0316 µM) 104%, 75.6% [2024-05] and 100%, 96.7% [2024-06]; (compound alone 1 µM) 74.2%, 83.7% [2024-05] and 113%, 132% [2024-06].
In the case of `CCN1CCN(Cc2ccc(Nc3ncc(F)c(-c4cc(F)c5nc(C)n(C(C)C)c5c4)n3)nc2)CC1`, the viability, T/C was 93.8%, 133% [2024-05] and 126%, 117% [2024-06] (compound alone 0.0316 µM); 87.2%, 91.5% [2024-05] and 118%, 96% [2024-06] (compound alone 0.1 µM).
For the molecule `CCn1c(-c2cc(N3CCN(C)CC3)cnc2C(C)OC)c2c3cc(ccc31)-c1csc(n1)CC(NC(=O)C1CC1C)C(=O)N1CCCC(N1)C(=O)OCC(C)(C)C2` (centres undefined), the viability, T/C by setting is: (compound alone 0.003 µM) 115, 102, 110, 107, 109, 125, 131, 96.5%; (compound alone 0.00949 µM) 111 (2×), 91, 118, 121, 107, 102, 108%; (compound alone 0.03 µM) 116, 95.8, 107 (2×), 83.3, 94.4, 103, 112%; (compound alone 0.0949 µM) 97.6, 113, 103, 92.8, 86.9, 90.8, 95.5, 93.1%; (compound alone 0.3 µM) 119, 84.7 (2×), 84.4, 73.7, 81.8, 80.2, 80.1%.
Turning to `C[C@@H](NC(=O)c1ncnc(N)c1Cl)c1ncc(C(=O)Nc2cc(C(F)(F)F)c(Cl)cn2)s1`, the viability, T/C is 69.5%, 74.7% [2024-05] and 116%, 117% [2024-06] (compound alone 0.1 µM); 105%, 116% [2024-05] and 115%, 132% [2024-06] (compound alone 0.316 µM); 62.7%, 98% [2024-05] and 113%, 129% [2024-06] (compound alone 1 µM); 61.4%, 59.9% [2024-05] and 119%, 120% [2024-06] (compound alone 3.16 µM).
For the molecule `CCn1c(-c2cccnc2C(C)OC)c2c3cc(ccc31)N1CCOC(CC(NC(=O)C(C(C)C)N(C)C(=O)C3(F)CCN(C(=O)C#CC(C)(C)N(C)C)CC3)C(=O)N3CCCC(N3)C(=O)OCC(C)(C)C2)C1` (centres undefined), the viability, T/C runs as follows: (compound alone 0.000949 µM) 85.3, 94.3, 116, 93.4, 81.4, 101, 99.3, 92.8%; (compound alone 0.003 µM) 112, 89, 106, 118, 95.1, 107 (2×), 115%; (compound alone 0.00949 µM) 109, 84, 113, 85.8, 112, 106, 102, 100%; (compound alone 0.03 µM) 111, 99.4, 92.6, 96, 109, 99.9, 118, 101%; (compound alone 0.3 µM) 78.2, 94.9, 64.8, 72.4, 75.4, 70.8, 70, 65%.
Regarding `C=CC(=O)Nc1cc(Nc2nccc(-c3cn(C)c4ccccc34)n2)c(OC)cc1N(C)CCN(C)C`, the viability, T/C by setting is: (compound alone 0.00316 µM) 95.2%, 80% [2024-05] and 105%, 108% [2024-06]; (compound alone 0.01 µM) 97.9%, 74.7% [2024-05] and 93.5%, 101% [2024-06]; (compound alone 0.1 µM) 67.8%, 91.3% [2024-05] and 102%, 95.2% [2024-06]; (compound alone 0.316 µM) 61.2%, 72.1% [2024-05] and 94.3%, 104% [2024-06]; (compound alone 1 µM) 60.8%, 69.4% [2024-05] and 85.9%, 80.6% [2024-06].
Regarding `CCc1c2c(nc3ccc(O)cc13)-c1cc3c(c(=O)n1C2)COC(=O)[C@]3(O)CC`, the viability, T/C (compound alone 0.000949 µM) was 115%, 90.8% [2024-05] and 85.6%, 75.5% [2024-06].
On to `Cc1nc(N2CCC3(CC2)COC(C)C3N)c(CO)nc1Sc1ccnc(N)c1Cl` (centres undefined), for which the viability, T/C (compound alone 0.0316 µM) is 78.7%, 99% [2024-05] and 100%, 105% [2024-06]; the viability, T/C (compound alone 0.1 µM) was 62.1%, 73.4% [2024-05] and 99.8%, 111% [2024-06]; the viability, T/C (compound alone 3.16 µM) was 60.8%, 87.8% [2024-05] and 94.2%, 90.9% [2024-06].
As to `CC1(O)CCCC1n1c(=O)c(C(F)F)cc2cnc(NC3CCN(S(C)(=O)=O)CC3)nc21` (centres undefined), under “compound alone 0.0316 µM”, the viability, T/C was 110%, 92.4% [2024-05] and 121%, 115% [2024-06].
Regarding `O=C(c1ccc(F)c(F)c1Nc1ccc(I)cc1F)N1CC(O)([C@@H]2CCCCN2)C1`, the IC50 was > 1 µM, 695 nM [2024-05] and 499 nM, 573 nM [2024-06]. For the same molecule, where the note is “compound alone 1 µM”, the viability, T/C was 63%, 41.3% [2024-05] and 32.7%, 35.6% [2024-06].
As for `CC(C)NCC(C(=O)N1CCN(c2ncnc3c2C(C)CC3O)CC1)c1ccc(Cl)cc1` (centres undefined), under “compound alone 0.1 µM”, the viability, T/C is 80.7%, 85% [2024-05] and 84.1%, 111% [2024-06].
On to `CC(C)n1nc(-c2ccc3oc(N)nc3c2)c2c(N)ncnc21`, for which the viability, T/C is, setting by setting: (compound alone 0.000316 µM) 103%, 77.8% [2024-05] and 107%, 86.6% [2024-06]; (compound alone 0.001 µM) 86.5%, 74.3% [2024-05] and 90.3%, 101% [2024-06]; (compound alone 0.00316 µM) 106%, 145% [2024-05] and 121%, 108% [2024-06]; (compound alone 0.01 µM) 73.5%, 93.7% [2024-05] and 92.9%, 111% [2024-06].
